# Assay results from PubChem BioAssay AID1347165 (National Center for Advancing Translational Sciences (NCATS), 2019).
# Screen size: about 220,000 compounds; about 5,700 (2.6%) were called active. This list was built around the results that the source calls inconclusive (neither active nor inactive); the mix of calls is not that of the screen. The call rests on the fitted dose curve; in most records, active means well fitted inhibition curve with a large enough effect; inconclusive means small, poorly fitted or top-dose-only effect; inactive means no such curve, though single readings can be large or run the other way. Potencies of inconclusive entries are doubtful fits and often do not repeat.
# Biological target: Lysine-specific demethylase 5B (Homo sapiens) (UniProt Q9UGL1)
# UniProt Q9UGL1, sequence (Q9UGL1 whole entry, looked up): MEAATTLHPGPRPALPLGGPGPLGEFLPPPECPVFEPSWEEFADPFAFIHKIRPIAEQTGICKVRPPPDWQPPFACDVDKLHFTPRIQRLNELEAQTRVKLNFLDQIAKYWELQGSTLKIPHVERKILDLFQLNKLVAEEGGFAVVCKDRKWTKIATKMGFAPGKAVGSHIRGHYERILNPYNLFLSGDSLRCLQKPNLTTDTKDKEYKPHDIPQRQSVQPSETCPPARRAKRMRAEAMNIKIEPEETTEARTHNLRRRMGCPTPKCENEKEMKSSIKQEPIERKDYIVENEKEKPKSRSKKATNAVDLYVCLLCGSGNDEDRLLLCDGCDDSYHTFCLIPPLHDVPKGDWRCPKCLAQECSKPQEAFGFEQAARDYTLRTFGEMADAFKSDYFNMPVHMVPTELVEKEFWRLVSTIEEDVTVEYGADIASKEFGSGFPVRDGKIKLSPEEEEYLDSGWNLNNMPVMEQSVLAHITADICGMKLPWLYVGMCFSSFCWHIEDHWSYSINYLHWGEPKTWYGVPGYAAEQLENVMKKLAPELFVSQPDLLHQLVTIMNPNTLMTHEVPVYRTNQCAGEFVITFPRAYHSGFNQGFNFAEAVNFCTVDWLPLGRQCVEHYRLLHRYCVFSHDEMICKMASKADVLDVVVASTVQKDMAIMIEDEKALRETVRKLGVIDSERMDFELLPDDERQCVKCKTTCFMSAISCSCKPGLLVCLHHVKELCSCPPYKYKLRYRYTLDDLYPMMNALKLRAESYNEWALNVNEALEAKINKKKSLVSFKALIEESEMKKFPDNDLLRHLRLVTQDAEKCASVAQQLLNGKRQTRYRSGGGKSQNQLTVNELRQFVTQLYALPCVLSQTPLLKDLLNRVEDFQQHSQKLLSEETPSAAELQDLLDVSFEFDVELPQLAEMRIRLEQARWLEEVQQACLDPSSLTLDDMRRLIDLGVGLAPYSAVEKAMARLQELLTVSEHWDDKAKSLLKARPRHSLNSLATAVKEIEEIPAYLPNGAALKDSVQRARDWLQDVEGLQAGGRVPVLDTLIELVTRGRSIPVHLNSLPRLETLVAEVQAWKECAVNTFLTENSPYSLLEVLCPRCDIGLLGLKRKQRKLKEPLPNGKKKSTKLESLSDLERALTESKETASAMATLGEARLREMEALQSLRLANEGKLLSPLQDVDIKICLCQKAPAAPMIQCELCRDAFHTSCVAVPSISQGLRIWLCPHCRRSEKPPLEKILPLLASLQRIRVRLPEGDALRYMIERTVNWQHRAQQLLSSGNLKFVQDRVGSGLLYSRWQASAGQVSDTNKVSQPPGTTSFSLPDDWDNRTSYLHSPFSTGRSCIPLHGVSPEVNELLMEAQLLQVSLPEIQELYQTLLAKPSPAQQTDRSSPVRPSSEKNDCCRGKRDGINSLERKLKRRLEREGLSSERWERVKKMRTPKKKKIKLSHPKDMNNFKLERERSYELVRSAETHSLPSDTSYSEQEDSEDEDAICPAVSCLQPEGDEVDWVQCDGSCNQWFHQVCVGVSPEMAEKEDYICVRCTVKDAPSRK
# Assay: Primary screen for KDM5B Histone Demethylases FDH-coupled qHTS; further: nearly all actives have a fitted effect of over 70% in size
# Conditions: FDH-coupled NADH fluorescence (FDH is formaldehyde dehydrogenase); series mostly up to 57.7 µM
# How it was run: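 qHTS format, multiple compound concentrations. Buffer 50 mM HEPES pH 7.5/0.01% Tween-20; 200 nM KDM5BΔAP final; 10 min compound preincubation; substrate-mix levels 12.5 µM peptide, 25 µM α-KG, 0.25 mM NAD⁺; 30 min RT; ΔRFU.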
# Potency means the concentration at half of the fitted maximal effect; tags describe the fitted curve by direction and shape.
row,SMILES,Potency
1,CC(C)(C)N(Cc1ccccc1)C(=O)COC(=O)c1cc2ccccc2oc1=O,inactive
2,CCOc1ccc(OC(=O)c2cn(-c3ccc(C)cc3)c(=O)c3ccccc23)cc1,"inconclusive: 20 µM [inhibitor, single point]"
3,CCN(CC)c1ccc(NC(=O)c2cc3ccc(OC)cc3[nH]2)cc1,inactive
4,Cc1nc2cc(NC(C)C(=O)Nc3cc(Cl)ccc3Cl)ccc2o1 (configuration not stated),"inconclusive: 39.8 µM [inhibitor, partial curve, poor fit]"
5,C/C=C/C=C/C(=O)Nc1ccccc1SC,"inconclusive: 35.5 µM [inhibitor, partial curve, poor fit]"
6,CCCOc1cccc(C(=O)Nc2cccc(NC(=O)c3ccc(C(C)(C)C)cc3)c2)c1,"inconclusive: 31.6 µM [inhibitor, partial curve, poor fit]"
7,CN(C)CC1(O)CCCN(Cc2ccc(-c3ccc(Cl)cc3)o2)C1 (configuration not stated),"inconclusive: 28.2 µM [inhibitor, partial curve, poor fit]"
8,c1ccc(C2CCCN2Cc2nnc(-c3ccco3)o2)cc1 (configuration not stated),inactive
9,C#CCNC(=O)c1nc(-c2cc(Cl)cc(Cl)c2)c2ccccn12,active: 10 µM
10,N#Cc1ccccc1Sc1ccccc1C(=O)OCC(=O)Nc1ccc(N2CCOCC2)cc1,inactive
11,COc1cccc(CN2CC[C@H]3C(=O)NCCCCCCN(Cc4ccncc4)[C@@H]3C2)c1OC,"inconclusive: 39.8 µM [inhibitor, single point]"
12,NC(=O)c1ccc(CNC(=O)c2ccc(C(F)(F)F)cc2)cc1,inactive
13,O=C(c1ccc(F)cc1)[C@@H]1[C@@H]2CCCN2[C@]2(C(=O)Nc3ccc(F)cc32)[C@@]12C(=O)Nc1ccccc12,"inconclusive: 20 µM [inhibitor, partial curve, poor fit]"
14,CCOC(=O)c1cc(-c2ccccc2)n(CCCC(=O)Nc2ccc(C(C)C)cc2)c1C,"inconclusive: 31.6 µM [inhibitor, partial curve, poor fit]"
15,COC(=O)c1cccc(-n2c(CCC(=O)O)ccc2-c2ccc(OC)cc2)c1,"inconclusive: 22.4 µM [inhibitor, single point]"
16,Cc1ccc(Cl)cc1NC(=O)C(C)n1nnc2sc(-c3ccccc3)cc2c1=O (configuration not stated),"inconclusive: 25.1 µM [inhibitor, single point]"
17,COc1cccc(C(=O)NC2CCN(c3cc(-c4cccs4)[nH]n3)CC2)c1,"inconclusive: 22.4 µM [inhibitor, partial curve]"
18,CCN1CCc2c(sc(NC(=O)Nc3cccc(C)c3)c2C(N)=O)C1,"inconclusive: 39.8 µM [inhibitor, single point]"
19,COc1cccc(CNC(=O)CCc2cn(Cc3ccccc3Cl)c3ccccc23)c1,"inconclusive: 17.8 µM [inhibitor, partial curve, poor fit]"
20,COc1ccc2cc(CN3CCC(N(C)C)C3)c(-c3cccc(C)c3)nc2c1 (configuration not stated),"inconclusive: 25.1 µM [inhibitor, single point]"
21,CC(NC(=O)COc1ccc(Br)cc1)c1nc2ccccc2[nH]1 (configuration not stated),inactive
22,O=C(NC1(C(F)(F)F)C(=O)Nc2c1c(=O)[nH]c(=O)n2-c1ccccc1)c1cccs1 (configuration not stated),inactive
23,O=C(Cc1ccc(Br)cc1)N(Cc1nnc(-c2ccccc2Cl)o1)C1CC1,inactive

row,SMILES,Potency
1,C=C(C)CN1CCN(c2nc3c(c(=O)[nH]c(=O)n3C)n2Cc2ccccc2)CC1,inactive
2,CCOc1ccc(CC(=O)N2CCCN(C)c3ccccc32)cc1,"inconclusive: 12.6 µM [inhibitor, partial curve, poor fit]"
3,Cc1nn(-c2ccccc2)c(OC(=O)C(C)C)c1Sc1ccccc1,"inconclusive: 10 µM [inhibitor, partial curve, poor fit]"
4,CC(C)CC(=O)N1C[C@@H]2CCCN3CCC[C@@H]([C@H]23)[C@H]1CCCC(=O)NCC1CC1,inactive
5,COCCNC(=O)c1nc(-c2ccc(F)cc2)c2ccccn12,active: 39.8 µM
6,Cc1cccc(NC(=O)Nc2ccc(C)n(CC(=O)NCCN3CCCCC3)c2=O)c1,"inconclusive: 20 µM [inhibitor, partial curve]"
7,CC(C)N1C(=O)C(Cc2nc3ccccc3c(=O)n2C)c2cc(Br)ccc21 (configuration not stated),inactive
8,CC(=O)N1CCN(c2csc3ccc(F)cc3c2=O)CC1,"inconclusive: 17.8 µM [inhibitor, partial curve, poor fit]"
9,Brc1ccc(-c2noc(-c3cc(-c4ccco4)n[nH]3)n2)cc1,"inconclusive: 35.5 µM [inhibitor, single point]"
10,CCCS(=O)(=O)N[C@@H]1CN(Cc2cccnc2)C[C@H]1CN(C)C,"inconclusive: 35.5 µM [inhibitor, partial curve, poor fit]"
11,O=C(CCC[C@@H]1[C@H]2CCCN3CCC[C@@H](CN1Cc1cccnc1)[C@@H]23)N1CCN(C2CCCC2)CC1,"inconclusive: 22.4 µM [inhibitor, partial curve]"
12,Cc1ccccc1NC(=O)CSc1nc(-c2ccccc2C)nc2cc(=O)[nH]n12,"inconclusive: 15.8 µM [inhibitor, partial curve, poor fit]"
13,Cc1ccccc1-c1nc(C#N)c(NCC(C)C)o1,"inconclusive: 22.4 µM [inhibitor, partial curve, poor fit]"
14,COc1ccccc1N(CC(=O)NCCSCc1ccccc1)S(=O)(=O)c1ccc(C)cc1,inactive
15,CCOc1ccc(NC(=O)N2CCN(S(=O)(=O)c3ccc4c(ccn4C)c3)CC2)cc1,"inconclusive: 2 µM [inhibitor, full curve, poor fit]"
16,CCCn1c(=O)c2ccccc2n(CC(=O)N(C)c2cccc(Cl)c2)c1=O,inactive
17,COc1ccc(N2CC(c3noc(-c4ccc5c(c4)OCO5)n3)CC2=O)cc1 (configuration not stated),active: 31.6 µM
18,Cc1ccc(NC(=O)c2cc[n+]([O-])cc2)cc1Cl,inactive
19,COc1ccc(-c2ccnc(N[C@H]3CO[C@H]4[C@@H]3OC[C@@H]4NS(=O)(=O)c3ccc(NC(C)=O)cc3)n2)cc1,"inconclusive: 28.2 µM [inhibitor, single point]"
20,O=C(CCCc1cccs1)N(CC1CCOC1)C1CC1 (configuration not stated),inactive
21,CCC(CNc1ccc2nnnn2n1)N1CCCC1 (configuration not stated),inactive
22,COC(=O)c1ccc(Nc2nnc(-c3ccc(C)c(S(=O)(=O)N4CCN(C)CC4)c3)c3ccccc23)cc1,"inconclusive: 39.8 µM [inhibitor, single point]"
23,C/C(=N/O)c1ccc2c(c1)CCC(=O)N2,"inconclusive: 28.2 µM [inhibitor, partial curve, poor fit]"

row,SMILES,Potency
1,CN1Cc2c(N3CCOCC3)nc3sc(C#N)c(N)c3c2CC1(C)C,"inconclusive: 22.4 µM [inhibitor, partial curve, poor fit]"
2,COc1ccc(-c2cc(OC(=O)c3ccc(Cl)cc3)c3c(C)oc(C)c3c(=O)c2)cc1,"inconclusive: 15.8 µM [inhibitor, partial curve, poor fit]"
3,COCCn1c(SCC(=O)c2cc(C)c(C)cc2C)nnc1-c1ccc(Cl)cc1,inactive
4,COc1cccc(Nc2cnc3ccc(-c4cccc(CO)c4)nn23)c1,"inconclusive: 44.7 µM [inhibitor, partial curve, poor fit]"
5,O=C(c1ccc2[nH]ccc2c1)N1CCN(S(=O)(=O)c2cccc3nonc23)CC1,inactive
6,O=C(NCc1ccncc1)c1nc(-c2ccc3cc[nH]c3c2)no1,inactive
7,CN1C(=O)CO[C@H]2CN(S(C)(=O)=O)C[C@H]21,inactive
8,CCC(=O)N1CCN(c2cc3c(cc2F)c(=O)c(C(=O)O)cn3CC)CC1,"inconclusive: 17.8 µM [inhibitor, partial curve, poor fit]"
9,CN(Cc1ccc(F)cc1)c1ccc2ncc(Nc3ccc4c(c3)OCCO4)n2n1,"inconclusive: 39.8 µM [inhibitor, partial curve, poor fit]"
10,COc1ccc(-c2nn(-c3ccc(C)cc3C)c(OC(C)=O)c2-c2ccc(NC(C)=O)cc2)c(OC)c1,active: 31.6 µM
11,O=C(O)CNC(=O)c1ccc(NS(=O)(=O)c2cc(Cl)ccc2Cl)cc1,inactive
12,CCN(c1cccc2ccccc12)S(=O)(=O)c1cccs1,"inconclusive: 17.8 µM [inhibitor, partial curve, poor fit]"
13,O=C(Nc1ccc(F)cc1F)c1ncoc1-c1cccc(Cl)c1,"inconclusive: 31.6 µM [inhibitor, single point]"
14,CN(CC1CCOC1)S(=O)(=O)c1cccc(C(F)(F)F)c1 (configuration not stated),inactive
15,CCc1ccccc1NC(=O)c1ccc2c(O)c(S(=O)(=O)c3ccccc3)c(=O)[nH]c2c1,"inconclusive: 15.8 µM [inhibitor, partial curve, poor fit]"
16,CCC1CCCCN1S(=O)(=O)c1ccc(C(=O)Nc2sc3c(c2C(=O)NC)CCC3)cc1 (configuration not stated),"inconclusive: 1.41 µM [inhibitor, full curve, poor fit]"
17,N#Cc1ccccc1NC(=O)c1cc2n(n1)CC(c1ccc(Br)cc1)OC2 (configuration not stated),"inconclusive: 31.6 µM [inhibitor, single point]"
18,CN(C)C[C@@H]1CN(Cc2ccccc2)C[C@H]1NC(=O)c1cn[nH]c1,"inconclusive: 35.5 µM [inhibitor, partial curve, poor fit]"
19,Cc1cc(=O)oc2cc3occ(-c4ccccc4)c3cc12,inactive
20,COCCN=C1Nc2ncccc2NC12CCCN(C(=O)c1cccc(OC)c1)C2 (configuration not stated),active: 31.6 µM
21,CCOC(=O)c1c(C)[nH]c(-c2ccccc2)c1-c1ccccc1,"inconclusive: 39.8 µM [inhibitor, single point]"
